From the antibiotic and cytotoxicity screens of Wong et al. (2023)
This is one part of the list.

Tests used:
HSkMC = human skeletal muscle cells; assay: cytotoxicity call (relative viability < 0.9); conditions: 10 µM
HepG2 = assay: cytotoxicity call (relative viability < 0.9); conditions: 10 µM
S. aureus RN4220 = assay: growth inhibition call (relative growth <= 0.2); conditions: 50 µM

| Structure (SMILES) | cytotoxicity call (HSkMC) | cytotoxicity call (HepG2) | growth inhibition call (S. aureus RN4220) |
| --- | --- | --- | --- |
| CNC[C@@H]1OCCCC[C@H](C)Oc2ccc(NC(=O)c3ccncc3)cc2C(=O)N([C@H](C)CO)C[C@H]1C | inactive | inactive | inactive |
| C[C@@H]1CN([C@@H](C)CO)S(=O)(=O)c2ccc(-c3ccncc3)cc2O[C@@H]1CN(C)S(=O)(=O)c1ccccc1F | inactive | inactive | inactive |
| C[C@H]1CN([C@@H](C)CO)C(=O)c2cccc(NC(=O)CCCCCC(=O)Nc3ccccc3N)c2O[C@H]1CN(C)Cc1ccc(C(F)(F)F)cc1 | inactive | inactive | inactive |
| C[C@H]1CN([C@@H](C)CO)C(=O)c2cc(NC(=O)Cn3cnnn3)ccc2O[C@H]1CN(C)C(=O)Nc1cccc2ccccc12 | inactive | inactive | inactive |
| C[C@H](CO)N1C[C@H](C)[C@H](CN(C)Cc2ccc3c(c2)OCO3)Oc2ccc(NS(C)(=O)=O)cc2CC1=O | inactive | inactive | inactive |
| C[C@H](CO)N1C[C@H](C)[C@@H](CN(C)S(=O)(=O)c2cn(C)cn2)Oc2ccc(NC(=O)Nc3ccc4c(c3)OCO4)cc2C1=O | inactive | inactive | inactive |
| C[C@@H]1CN([C@H](C)CO)C(=O)c2cc(NC(=O)CCN3CCOCC3)ccc2O[C@@H]1CN(C)S(=O)(=O)c1ccc(Cl)cc1 | inactive | inactive | inactive |
| CCCNC(=O)[C@@]1(Sc2ccc(C)cc2)CC(=O)N(Cc2cc(C(F)(F)F)cc(C(F)(F)F)c2)[C@@H]1c1ccc(CO)cc1 | inactive | inactive | inactive |
| C=CCN(Cc1ccccc1)C(=O)[C@@H]1N(c2c(Cl)cccc2CO)C(=O)[C@@H]2[C@H](C(=O)O)[C@@H]3C=C[C@@]21O3 | inactive | inactive | inactive |
| C[C@@H]1CN([C@H](C)CO)C(=O)c2cc(NC(=O)c3ccccc3)ccc2O[C@@H](C)CCCCO[C@H]1CN(C)S(=O)(=O)c1ccc(Cl)cc1 | inactive | active | inactive |
| C[C@@H]1CN([C@@H](C)CO)C(=O)c2cc(NC(=O)C3CCCCC3)ccc2O[C@@H](C)CCCCO[C@H]1CN(C)CC1CCCCC1 | inactive | active | inactive |
| COc1ccc(S(=O)(=O)N(C)C[C@H]2OCCCC[C@@H](C)Oc3ccc(NC(=O)Nc4ccc(F)cc4)cc3C(=O)N([C@H](C)CO)C[C@H]2C)cc1 | inactive | inactive | inactive |
| C[C@@H]1CN([C@H](C)CO)C(=O)Cc2cc(NS(=O)(=O)c3ccccc3)ccc2O[C@@H]1CN(C)Cc1ccc(C(=O)O)cc1 | inactive | inactive | inactive |
| COc1ccc(S(=O)(=O)N(C)C[C@H]2Oc3ccc(NC(=O)Nc4c(C)noc4C)cc3C(=O)N([C@H](C)CO)C[C@H]2C)cc1 | inactive | inactive | inactive |
| C[C@H]1CN([C@@H](C)CO)C(=O)c2cc(-c3ccc(C(=O)N(C)C)cc3)cnc2O[C@@H]1CN(C)C(=O)C1CC1 | inactive | inactive | inactive |
| C[C@H]1CN([C@@H](C)CO)C(=O)c2cc(C#CCN(C)C)cnc2O[C@@H]1CN(C)S(C)(=O)=O | inactive | inactive | inactive |
| CO[C@@H](CN(C)S(=O)(=O)c1ccc(Cl)cc1)[C@@H](C)CN([C@H](C)CO)S(=O)(=O)c1cccc(Cl)c1 | inactive | inactive | inactive |
| CCOC(=O)CCCCCCCCCCCC[C@@H]1C=CCC1 | inactive | inactive | inactive |
| C[C@H](CO)N1C[C@H](C)[C@@H](CN(C)Cc2ccc(Cl)c(Cl)c2)OCc2ccccc2-c2c(n(C)c3ccccc23)C1=O | inactive | inactive | inactive |
| C[C@H](CO)N1C[C@H](C)[C@@H](CN(C)S(C)(=O)=O)Oc2ccc(NC(=O)Nc3ccccc3)cc2CC1=O | inactive | inactive | inactive |
| Cc1noc(C)c1NC(=O)Nc1cccc2c1O[C@@H](CN(C)Cc1ccc(Cl)c(Cl)c1)[C@H](C)CN([C@@H](C)CO)C2=O | inactive | inactive | inactive |
| C=C1CC[C@@H]2C(C)(C)CCC[C@@]2(C)[C@@H]1CC/C(C)=C/C(=O)OC | inactive | inactive | inactive |
| C[C@@H]1CN([C@H](C)CO)C(=O)Cc2cc(NC(=O)Cn3cnnn3)ccc2O[C@@H]1CN(C)Cc1ccc(C(=O)O)cc1 | inactive | inactive | inactive |
| C[C@@H]1CN([C@H](C)CO)C(=O)c2cc(NS(=O)(=O)c3ccc(F)cc3)ccc2O[C@H]1CN(C)C(=O)Nc1ccc(C(F)(F)F)cc1 | inactive | inactive | inactive |
